Test results reported in the supplement of paper PMC12217912.
The list shows a part of the results. Sequences were assembled here from the parent chain. Values near 0.05 are background.

B1: TEV protease; numbered along this chain (parent)
chain: MGESLFKGPRDYNPISSSICHLTNESDGHTTSLYGIGFGPFIITNKHLFRRNNGTLVVQSLHGVFKVKDTTTLQQHLVDGRDMIIIRMPKDFPPFPQKLKFREPQREERICLVTTNFQTKSMSSMVSDTSCTFPSGDGIFWKHWIQTKDGQCGSPLVSTRDGFIVGIHSASNFTNTNNYFTSVPKNFMELLTNQEAQQWVSGWRLNADSVLWGGHKVFMVKPEEPFQPVKEATQL

Variants of: B1
Assay: raw area under fraction-flipped curve 0-4 h after induction (AUC4h, not background-subtracted), DNA-recorder readout of cleavage of the substrate (dimensionless); higher = more cleavage of the substrate by the protease variant
Conditions: temperature: 34 °C; time window: 0-4 h after rhamnose induction
Procedure: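 In vivo DNA recorder in E. coli TOP10(DE3) ΔrhaA at 34 °C. Each TEVp single-site mutant (parent TEVp 0) is paired with a single-site variant of the 7-mer TEVs (canonical ENLYFQ|S). The substrate sits between flexible linkers in a Bxb1-sfGFP-TEVs-SsrA fusion, so cleavage stabilises Bxb1 and speeds flipping of a recombination array, read by NGS. The value is the raw area under the fraction-flipped curve over 0-4 h after rhamnose induction (AUC4h), with ≥20 reads per time point. It is not background-subtracted; inactive controls average about 0.047.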
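Also: Bxb1 expression induced with 0.2% (w/v) L-rhamnose at OD600 near 0.5, cultures sampled hourly, flipped fraction per protease–substrate barcode pair counted by paired-end Illumina sequencing.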

Variant | area with substrate ENAYFQS | area with substrate ENDYFQS | area with substrate ENEYFQS | area with substrate ENGYFQS | area with substrate ENHYFQS | area with substrate ENKYFQS | area with substrate ENMYFQS | area with substrate ENNYFQS | area with substrate ENPYFQS | area with substrate ENSYFQS | area with substrate ENVYFQS | area with substrate ENWYFQS | area with substrate ENYYFQS | area with substrate ENQYFQS | area with substrate ENRYFQS | area with substrate ENTYFQS | area with substrate ENCYFQS | area with substrate ENIYFQS | area with substrate ENFYFQS
N186D | 0.0648 | 0.0577 | 0.0639 | 0.0612 | 0.065 | 0.0743 | 0.0577 | 0.05 | 0.0657 | 0.0622 | 0.0658 | 0.0436 | 0.0624 | – | – | – | – | – | –
T174Q | 0.0554 | 0.0609 | 0.0702 | 0.0442 | 0.0582 | – | 0.0641 | 0.0732 | 0.0728 | 0.0546 | – | 0.0076 | – | 0.0552 | 0.0443 | 0.0748 | – | – | –
T174N | 0.0748 | – | – | 0.0744 | 0.0633 | – | – | 0.0571 | 0.0433 | – | – | – | – | 0.0652 | – | – | 0.0773 | – | –
S154Y | 0.0383 | – | 0.0677 | 0.0656 | – | 0.0582 | – | – | – | 0.0461 | 0.0692 | – | – | 0.0563 | 0.0561 | 0.0709 | – | – | –
S154K | 0.0552 | 0.0635 | 0.0592 | – | – | 0.0511 | 0.0748 | – | 0.0686 | 0.0648 | 0.062 | – | 0.0647 | 0.0564 | 0.0569 | 0.0495 | 0.0492 | – | –
D161M | 0.0591 | 0.0582 | 0.0428 | 0.0523 | – | 0.0653 | – | – | 0.047 | 0.0619 | – | 0.0403 | – | – | 0.0515 | – | 0.0575 | 0.0874 | –
G150D | 0.0638 | 0.0692 | 0.0649 | – | 0.0564 | – | 0.0493 | 0.0524 | – | 0.0614 | – | – | – | – | – | 0.0691 | 0.0745 | 0.0581 | 0.0605
V165Y | 0.0531 | 0.0535 | 0.0409 | 0.0581 | 0.0532 | 0.052 | 0.0577 | 0.0615 | 0.0494 | 0.0462 | 0.0582 | – | 0.0289 | 0.0466 | 0.057 | 0.0494 | – | – | 0.0533
T159S | 0.0608 | 0.0387 | 0.0856 | 0.0607 | – | 0.067 | – | 0.0567 | – | 0.0352 | – | 0.0497 | – | 0.0657 | 0.0612 | – | 0.055 | 0.0827 | 0.0791
Q194Y | 0.0653 | 0.0553 | 0.0673 | 0.0719 | – | 0.0574 | – | 0.0676 | – | 0.0457 | – | – | – | 0.0516 | 0.0557 | 0.072 | 0.0759 | – | 0.0511
T147H | 0.0681 | 0.0671 | 0.0543 | 0.0755 | – | – | – | – | – | 0.0649 | 0.0674 | 0.0364 | – | 0.061 | 0.0577 | 0.0525 | 0.0665 | 0.0662 | 0.0655
N193L | 0.0486 | 0.0612 | – | – | – | – | – | 0.0674 | – | – | 0.0642 | – | – | 0.0504 | 0.0701 | – | 0.0605 | 0.0868 | 0.0577
V157P | 0.0482 | 0.0485 | 0.0803 | 0.0485 | 0.0502 | – | – | 0.0471 | 0.0447 | 0.0759 | 0.0707 | – | – | 0.0436 | 0.0495 | – | 0.0541 | 0.0582 | –
A170H | 0.0538 | – | 0.0617 | 0.0709 | – | 0.0593 | 0.0793 | – | – | – | – | – | – | – | – | – | – | – | 0.0868
S182Y | 0.0458 | 0.0602 | 0.0572 | – | – | – | 0.0443 | – | – | 0.0483 | 0.0565 | – | – | 0.0602 | 0.049 | 0.0435 | 0.0443 | – | –
S182I | 0.0551 | – | 0.0417 | 0.0726 | – | 0.0505 | – | 0.0656 | 0.0567 | 0.0549 | 0.0555 | – | – | 0.0537 | 0.057 | – | 0.0639 | – | –
S182P | 0.0699 | 0.0465 | 0.0617 | 0.072 | 0.0545 | – | – | – | 0.0617 | 0.0606 | – | – | – | 0.0565 | 0.0592 | 0.0736 | – | – | 0.0529
Q197M | 0.0535 | 0.0626 | 0.0619 | 0.062 | – | – | 0.092 | – | 0.0644 | 0.0558 | 0.086 | – | – | 0.0096 | – | 0.0659 | – | 0.14 | –
G153K | 0.061 | 0.0406 | 0.0597 | – | – | – | – | – | 0.047 | 0.0281 | – | – | 0.0248 | 0.0535 | – | – | 0.052 | – | 0.0497
Q198H | 0.0479 | 0.0644 | – | 0.0691 | – | 0.0585 | – | 0.0526 | – | – | – | 0.068 | – | 0.0527 | 0.0492 | 0.0668 | – | – | 0.0561
L190A | 0.0461 | 0.0668 | 0.0546 | – | 0.0592 | 0.067 | 0.0636 | 0.0629 | 0.0536 | 0.0682 | 0.0963 | – | 0.0556 | 0.0556 | – | 0.0801 | – | 0.139 | –
N177D | 0.0616 | 0.0646 | 0.0737 | 0.0745 | 0.0661 | – | 0.0509 | 0.0622 | 0.062 | 0.0859 | 0.0652 | 0 | – | – | – | 0.0715 | – | – | 0.0719
D149L | 0.0784 | 0.0654 | 0.0571 | – | 0.0673 | – | – | 0.0629 | 0.0603 | 0.0639 | – | – | 0.052 | 0.0886 | – | 0.0523 | 0.0631 | 0.0833 | –
L191S | 0.0531 | 0.0513 | – | – | – | 0.0611 | 0.0624 | 0.0308 | – | 0.0584 | – | – | – | 0.0273 | – | 0.0638 | – | 0.0521 | –
L191E | 0.0498 | – | 0.0626 | 0.0598 | 0.0642 | – | – | 0.0647 | 0.0739 | 0.0653 | 0.0765 | – | – | 0.0534 | 0.0515 | 0.0696 | 0.0538 | 0.0548 | 0.0676
I167C | 0.0532 | 0.0588 | 0.057 | 0.0664 | 0.0546 | – | – | – | 0.0318 | 0.0622 | 0.0486 | – | – | 0.0585 | – | 0.0409 | 0.0672 | – | 0.0521
N172G | 0.0481 | – | 0.0759 | 0.0628 | 0.0729 | 0.0573 | – | – | – | – | 0.0409 | – | – | 0.0623 | 0.0569 | 0.0696 | – | – | –
N172T | 0.0674 | 0.0779 | 0.0457 | – | – | – | 0.059 | 0.0544 | – | 0.0623 | – | – | – | 0.0536 | – | 0.0464 | 0.0905 | – | –
N172I | 0.0212 | – | – | 0.0648 | 0.0623 | 0.0323 | 0.0458 | – | 0.0618 | 0.0906 | 0.0584 | – | 0.0555 | 0.0424 | – | 0.0502 | 0.097 | – | 0.0612
S169E | 0.0553 | 0.0599 | 0.0621 | 0.0669 | – | 0.0433 | 0.0578 | 0.0483 | 0.0889 | 0.0519 | 0.0359 | – | – | 0.0551 | 0.0667 | – | 0.0629 | – | 0.0814
